Laboratory results from publication PMC4336329 (PLoS ONE, 2015).
Screen size: about 310,000 compounds; about 2,200 (0.71%) showed an effect of 50% or more. Effects have a minus sign here. Some of the results follow.

target: human ether-à-go-go-related gene (hERG) potassium channel (human, UniProt Q12809); test: primary screen, population patch clamp on CHO cells stably expressing hERG
Sequence (Q12809 whole entry, looked up): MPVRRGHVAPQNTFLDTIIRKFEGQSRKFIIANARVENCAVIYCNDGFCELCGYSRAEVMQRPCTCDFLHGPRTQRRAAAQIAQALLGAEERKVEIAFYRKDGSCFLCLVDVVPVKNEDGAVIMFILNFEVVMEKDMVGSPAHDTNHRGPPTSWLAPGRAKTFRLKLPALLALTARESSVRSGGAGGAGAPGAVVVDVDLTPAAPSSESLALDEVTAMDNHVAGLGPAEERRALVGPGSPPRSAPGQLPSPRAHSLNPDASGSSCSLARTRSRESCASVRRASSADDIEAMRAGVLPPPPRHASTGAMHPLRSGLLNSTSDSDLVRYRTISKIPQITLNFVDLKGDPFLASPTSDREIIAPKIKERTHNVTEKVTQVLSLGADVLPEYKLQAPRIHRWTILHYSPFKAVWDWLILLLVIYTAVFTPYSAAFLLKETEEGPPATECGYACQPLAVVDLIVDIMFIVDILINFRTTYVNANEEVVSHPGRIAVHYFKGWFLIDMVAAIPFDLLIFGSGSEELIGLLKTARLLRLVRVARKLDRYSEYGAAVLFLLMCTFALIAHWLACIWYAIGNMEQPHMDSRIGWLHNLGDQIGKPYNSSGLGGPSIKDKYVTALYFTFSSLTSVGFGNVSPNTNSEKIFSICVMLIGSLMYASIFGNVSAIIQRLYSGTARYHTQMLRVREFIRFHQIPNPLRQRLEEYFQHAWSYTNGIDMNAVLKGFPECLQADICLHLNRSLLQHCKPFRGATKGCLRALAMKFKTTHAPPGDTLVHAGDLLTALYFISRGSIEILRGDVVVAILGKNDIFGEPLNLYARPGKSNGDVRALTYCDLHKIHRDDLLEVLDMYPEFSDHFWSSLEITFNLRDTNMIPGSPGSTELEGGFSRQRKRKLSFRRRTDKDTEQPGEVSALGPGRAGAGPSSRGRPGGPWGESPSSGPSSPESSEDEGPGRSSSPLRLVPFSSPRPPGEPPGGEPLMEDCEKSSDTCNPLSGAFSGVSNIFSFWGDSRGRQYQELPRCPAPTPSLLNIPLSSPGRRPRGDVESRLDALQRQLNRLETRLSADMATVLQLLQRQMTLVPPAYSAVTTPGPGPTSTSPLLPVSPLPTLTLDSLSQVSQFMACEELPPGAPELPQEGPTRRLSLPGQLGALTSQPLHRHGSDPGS

Row | SMILES | hERG current change (%, negative = inhibition) at 1uM [%]
1 | CCCCCC(=O)N1CCCCC1 | -2.84
2 | COc1ccc(NC(=O)C2CCCN(S(C)(=O)=O)C2)c(OC)c1 (centres unmarked) | 15.2
3 | COc1ccccc1OCCNC(=O)c1ccc(C)c(S(=O)(=O)N2CCOCC2)c1 | -0.793
4 | CCN(CC)CCCN1C(=O)C(O)=C(C(=O)c2sc(C)nc2C)C1c1ccco1 (centres unmarked) | 2.41
5 | NC(=O)NCC(c1ccccc1)C1CCCCC1 (centres unmarked) | 20.3
6 | COc1cccc(NC(=O)c2ccc3nsnc3c2)c1 | 10.3
7 | O=S(=O)(c1ccc(F)c(F)c1)N1CCN(S(=O)(=O)c2cccs2)CC1 | 11.9
8 | COc1ccc(C(=O)N2CCN(Cc3ccc(OC)c(OC)c3)CC2)cc1.O=C(O)C(=O)O | 9.64
9 | O=C(c1ccccc1NS(=O)(=O)c1cccs1)N1CCOCC1 | 1.4
10 | O=[N+]([O-])c1ccc(N2CCCCCC2)c(S(=O)(=O)N2CCCCC2)c1 | 6.38
11 | CSCC[C@H](NC(=O)Cc1c(C)c2cc3c4c(oc3cc2oc1=O)CCCC4)C(=O)O | 14.3
12 | O=C(Cn1c(=O)c2cccn2c2cccnc21)N1CCN(c2ccccc2F)CC1 | 16
13 | CN(C)c1ccnc(Oc2ccc(Cl)cc2)c1C#N | -0.389
14 | COc1ccc(COC(=O)C2=C(C)NC(=O)NC2c2ccc(OC)cc2)cc1 (centres unmarked) | 13.4
15 | Cc1cc(C)c(NC(=O)CNC(=O)COC(=O)CNC(=O)c2ccc(Cl)cc2Cl)c(C)c1 | 10.1
16 | O=C(/C=C\Nc1ccccn1)c1ccc(Cl)cc1 | 5.43
17 | O=C(N=C1SC2CS(=O)(=O)CC2N1c1ccc(F)cc1)C1CCCCC1 (centres unmarked) | 9.03
18 | COc1ccccc1C(=O)N(CN1CCCC1=O)c1cccc(Cl)c1 | 2.43
19 | Cc1ccc(S(=O)(=O)N2CCC3(CC2)OCCO3)cc1 | 19.6
20 | O=C(O)c1cccc(NC(=S)NCc2ccccc2)c1 | 9.95
21 | COc1ccc(/C=N\NC(=O)C2=NNC(=O)C2C)cc1 (centres unmarked) | 6.23
22 | Cc1ccc(S(=O)(=O)NC2(C(=O)O)CCCCC2)cc1 | 1.62
23 | C/C(N)=C(/C#N)C(=O)CSc1nnc(-c2ccccc2)n1C | 14.5

Row | SMILES | hERG current change (%, negative = inhibition) at 1uM [%]
24 | COc1ccc(/C=C2\CCC(C3CCCC3)C2=O)cc1OC (centres unmarked) | 13.5
25 | CC(NC(=O)c1ccccc1Cl)NC(=O)c1ccccc1Cl | 7.65
26 | O=C(CSc1nnc(Nc2ccccc2)s1)NCc1cccs1 | 20.7
27 | CCOC(=O)NN1C(=O)c2ccccc2NC1(C)C | 4.73
28 | O=C(N/N=C/c1ccc(Cl)s1)c1ccccc1[N+](=O)[O-] | 14.1
29 | O=C(COC(=O)c1cc(-c2ccc(Cl)s2)nc2ccccc12)NCc1ccco1 | 5.02
30 | Cc1ccc2oc(=O)c3cc(C(=O)NCCCN4C(C)CCCC4C)sc3c2c1 (centres unmarked) | -12.8
31 | CCc1ccc(NC(=O)Cn2c3[n+](c4c(F)c(F)ccc42)CCCCC3)cc1.[I-] | 17
32 | CC(=O)Nc1ccc(NC(=O)CN2C(=O)COc3ccc(S(=O)(=O)N4CCCCC4)cc32)cc1 | 9.47
33 | CC(C)Cn1c2c(c(O)c(C(=O)Nc3nc4ccccc4s3)c1=O)CCCC2 | 14
34 | Cc1ccc(-c2nnc(NCCCO)c3ccccc23)cc1 | -1.07
35 | O=C(NCCCN1CCCC1=O)c1cccc(S(=O)(=O)N2CCCCC2)c1 | 7.22
36 | O=C(NCCOc1ccccc1)C1CCC(=O)N(CCCN2CCOCC2)C1 (centres unmarked) | 10.8
37 | O=C(CC1OC(=O)c2ccccc21)Nc1cccc(S(=O)(=O)N2CCCCCC2)c1 (centres unmarked) | 0.598
38 | Cc1ccc(-c2nn(CCC#N)cc2C=C(C#N)C#N)cc1 | 9.62
39 | CCN1C(=O)CSc2ccc(C(=O)NCc3ccc(OC)cc3)cc21 | 4.71
40 | COc1ccc(OC(=O)COc2ccccc2C)cc1 | 8.54
41 | COc1ccc(CN(C(=O)c2snc(C(N)=O)c2N)C(C(=O)NC2CCCC2)c2cc(OC)ccc2OC)cc1 (centres unmarked) | 13.9
42 | Cc1ccc(NC(=O)CCN2CC(C)OC(C)C2)cc1.Cl (centres unmarked) | 11.5
43 | CCC(NC(=O)CCC(=O)N1CCN(S(=O)(=O)c2ccc(C)cc2)CC1)c1ccc(C)cc1 (centres unmarked) | 6.42
44 | O=C(c1cc(Br)c(Br)s1)N1CCN(C/C=C/c2ccccc2)CC1 | 14.1
45 | O=C(Nc1ccccc1)c1cccc2c(Br)cccc12 | 13.2
46 | O=C(O)c1cccc(OCCN2CCCC2=O)c1 | 15.9

Row | SMILES | hERG current change (%, negative = inhibition) at 1uM [%]
47 | S=C(Nc1ccc2nc(-c3ccccn3)c(-c3ccccn3)nc2c1)N1CCOCC1 | 3.02
48 | O=C(OCC(=O)N(CCc1ccccc1)Cc1ccccc1)c1cc(S(=O)(=O)N2CCOCC2)ccc1F | 2.62
49 | Cc1ccc2nc(SCc3nc4cc(Cl)ccc4c(=O)[nH]3)[nH]c2c1 | 1.02
50 | COC(=O)c1ccc(NC(=S)NC(=O)c2c(-c3ccccc3)noc2C)cc1 | 18
51 | CCCCOc1cc(CC2CNC(=O)N2)ccc1OC (centres unmarked) | 9.58
52 | O=C(Nc1ccccc1)OCCOc1ccccc1 | -0.74
53 | Cc1ccccc1COc1cccc(/C=N/NC(=O)c2nnn(-c3nonc3N)c2C)c1 | 20.5
54 | Cc1ccc(OC(=O)c2c(C)nn(-c3ccccc3)c2C)cc1 | -1.64
55 | O=C(NCCc1cccs1)C1CCC(=O)N(CCc2cccc(F)c2)C1 (centres unmarked) | -5.11
56 | O=C1C2C3C=CC(C3)C2C(=O)N1CNc1ccccn1 (centres unmarked) | 0.339
57 | N#CC1(NC(=O)COC(=O)c2ccccc2SCC(=O)N2CCCC2)CCCCC1 | 12.6
58 | C=C(C(=O)c1ccccc1)C(c1ccccc1)C(C)C(=O)c1ccccc1 (centres unmarked) | 6.46
59 | COc1ccc(/C=C2\C(=O)NC(=S)N2C(=O)c2ccc(F)cc2)cc1 | 11.1
60 | COc1ccc(OC)c(NC(=O)NNC(=O)CCCOc2ccc(Cl)cc2C)c1 | 4.94
61 | CC(=O)c1cccc(S(=O)(=O)NCCC(=O)Nc2ccc(S(N)(=O)=O)cc2)c1 | 11.1
62 | O=C(Nc1ccc(-c2nnc3n2CCCCC3)cc1)c1ccco1 | 14.5
63 | COCc1c(Br)c(C)nc(OCC(=O)N/N=C/c2ccco2)c1C#N | -7.24
64 | O=C(N/N=C/c1cc([N+](=O)[O-])ccc1Cl)c1cnccn1 | 9.5
65 | NC(=O)c1c(C(F)(F)F)cc(-c2ccccc2)nc1NCCO | 9.18
66 | Cc1nc(NC(=O)CCCC(=O)Nc2nc(C)c(C)s2)sc1C | 3.78
67 | CC(NC(=O)c1cccc(S(=O)(=O)N2CCCCCC2)c1)c1ccccc1 (centres unmarked) | 0.0736
68 | Cc1c(C(=O)O)oc2ccc(S(=O)(=O)NCc3ccccc3)cc12 | 5.85
69 | Cc1noc(C)c1C(=O)Nc1nc(-c2cccs2)cs1 | -0.374

Row | SMILES | hERG current change (%, negative = inhibition) at 1uM [%]
70 | COc1cccc(/C=N/NC(=S)NC2CC3CCC2C3)c1OC (centres unmarked) | 9.13
71 | CC(C)C[C@H](NC(=O)c1[nH]cnc1C(=O)N[C@H](C)c1ccccc1)C(=O)OC(C)(C)C | 3.26
72 | COC(=O)c1cc(OC)c(OC)cc1NC(=O)CN1CCCCC1 | 2.74
73 | COc1c(C)cccc1C(=O)Nc1ccc(N2CCN(S(C)(=O)=O)CC2)cc1 | 4.86
74 | COc1ccc(C(=O)Nc2cc(C(=O)NCCc3ccccc3)ccc2Cl)cc1 | 7.17
75 | CSc1nsc(SCC(=O)Nc2nc3ccc(C)cc3s2)n1 | 18.9
76 | COc1ccc(CCNC(=O)CSc2nc(-c3ccc(OC)c(OC)c3)ccc2C#N)cc1 | -0.368
77 | NC(=S)NNC(=O)c1cc(C(F)(F)F)cc(C(F)(F)F)c1 | 14.5
78 | O=C(Nc1ccccc1)C1=C[C@H](c2ccccc2)C[C@H](OCCCCO)O1 | 12.7
79 | O=CN1CCN(C(=O)COc2ccc(Cl)cc2Br)CC1 | -0.456
80 | COc1cccc(Nc2cc(C)nc3ccccc23)c1 | -65.2
81 | C/C(=N\NC(=O)c1cccc(C)c1)c1ccc(N2CCOCC2)cc1 | 5.04
82 | C=C(C(=O)O)C(CCCCCC)C(=O)O (centres unmarked) | 6.49
83 | O=C(COC(=O)CCc1nc2ccccc2c(=O)[nH]1)NCc1ccc(F)cc1 | 12.8
84 | Cn1c(SCC(=O)NCCN2C(=O)CSC2=O)nc2ccccc2c1=O | 7.27
85 | O=C(Nc1ccccc1N1CCN(c2ccc(F)cc2)CC1)c1ccccc1 | 3.5
86 | O=C(CCN1CCCCC1)N/N=C/c1ccc(Br)cc1 | -37.1
87 | Cc1ccc(S(=O)(=O)Nc2ccc3cn[nH]c3c2)c(C)c1 | 7.58
88 | CCN(CC)CCN(C(=O)CCS(=O)(=O)c1ccccc1)c1nc2cc(C)cc(C)c2s1.Cl | 4.45
89 | CCn1c(CSc2nc3ccccc3s2)nnc1SCC(=O)c1ccc(O)c(O)c1 | 22.4
